{
  "source": "PubChem BioAssay AID743262",
  "about": "(National Center for Advancing Translational Sciences (NCATS), 2014)",
  "note": "About 25 (2%) of roughly 1,300 compounds were called active. About 9% were inconclusive and are not listed. The call rests on the fitted dose curve; in most records, active means well fitted activation curve with a large enough effect; inconclusive means small, poorly fitted or top-dose-only effect; inactive means flat fitted curve, though single readings scatter. The list shows a part of the results.",
  "data": [
    {"biological_target": "Glucagon-like peptide 1 receptor (Homo sapiens) (UniProt P43220)", "sequence (P43220 whole entry, looked up)": "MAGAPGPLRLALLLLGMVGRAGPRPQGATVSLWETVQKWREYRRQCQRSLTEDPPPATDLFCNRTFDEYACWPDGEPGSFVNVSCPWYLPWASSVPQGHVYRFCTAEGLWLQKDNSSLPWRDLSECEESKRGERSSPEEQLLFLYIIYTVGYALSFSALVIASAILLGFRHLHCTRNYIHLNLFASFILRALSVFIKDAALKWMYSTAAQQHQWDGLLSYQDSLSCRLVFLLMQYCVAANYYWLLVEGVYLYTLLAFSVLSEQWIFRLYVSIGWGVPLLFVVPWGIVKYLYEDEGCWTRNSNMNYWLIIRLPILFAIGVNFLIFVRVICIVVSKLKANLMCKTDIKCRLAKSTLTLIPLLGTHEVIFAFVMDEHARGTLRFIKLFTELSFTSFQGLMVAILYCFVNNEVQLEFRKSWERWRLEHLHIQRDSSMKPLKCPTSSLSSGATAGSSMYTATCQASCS", "assay": "qHTS of GLP-1 Receptor Agonists: Hit Validation; further: % of control where 0% means no effect", "settings": "HEK293 GLP-1R, cAMP-response luciferase, 4-6 h; series mostly up to 46.1 µM; activation: at the top concentration", "procedure,_shortened": "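Stably transfected HEK293 cells co-expressing GLP-1R and a cAMP-responsive luciferase reporter, plated 12 h before compound. Compound exposure 4-6 hr at 37 deg C, 5% CO2; luciferase luminescence read after 12 min detection at RT.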", "values": [
      {"smiles": "Cc1ccc(-c2cc(NC=O)c3ncc(-c4cnn(C)c4)n3c2)cc1", "activation": "inactive: 22%"},
      {"smiles": "C=CCNc1nnnc2c1sc1nc(N3CCOCC3)c3c(c12)CCCC3", "activation": "inactive: 13.5%"},
      {"smiles": "COc1ccc([N+](=O)[O-])cc1NS(=O)(=O)c1cc(C(=O)N2CCN(C)CC2)ccc1OC", "activation": "inactive: 2.19%"},
      {"smiles": "COc1cc(-c2c(-c3cc(OC)c(OC)c(OC)c3)noc2C)ccc1F", "activation": "inactive: 25.7%"},
      {"smiles": "CCN(C(=O)c1cc2c(C)nc3ccccc3c2o1)c1cc(Cl)ccc1OC", "activation": "inactive: 8.37%"},
      {"smiles": "O=C(NCc1nc2ccccc2[nH]1)c1c(F)cccc1F", "activation": "inactive: -0.724%"},
      {"smiles": "CCn1c2ccc(OC)cc2c2nc3ccccc3nc21", "activation": "inactive: 10.7%"},
      {"smiles": "Cc1c(C(=O)Nc2ccc3c(c2)OCCO3)oc2ccc(Br)cc12", "activation": "inactive: 2.23%"},
      {"smiles": "COc1ccc2c(C)cc(=S)[nH]c2c1", "activation": "inactive: 3.33%"},
      {"smiles": "CC(C)NC(=O)c1ccc(COc2ccc(C(C)(C)C)cc2)o1", "activation": "inactive: 2.36%"},
      {"smiles": "O=c1c2ccccc2nc(-c2ccco2)n1Cc1ccccc1", "activation": "inactive: 1.44%"},
      {"smiles": "COc1ccc(C(C)=O)cc1CSCc1cc(C(C)=O)ccc1OC", "activation": "inactive: 4.12%"},
      {"smiles": "CCOc1ncccc1C(=O)OCc1ccc(C(=O)OC)o1", "activation": "inactive: 3.21%"},
      {"smiles": "Cc1ccc(O)c(NC(=O)C2CC(c3cccc(Br)c3)=NO2)c1", "note": "(stereo unspecified)", "activation": "inactive: 5.03%"},
      {"smiles": "COc1ccc(-n2c(SCC#N)nnc2-c2ccc(NS(=O)(=O)c3ccc(C)cc3)cc2)cc1", "activation": "inactive: 2.8%"},
      {"smiles": "Cc1cc2c(cc(C(=O)OCC(=O)NCc3cccs3)n2C(C)C)o1", "activation": "inactive: 22.6%"},
      {"smiles": "Cc1ccc(CNc2ccc(O)cc2)cc1", "activation": "inactive: 0.472%"},
      {"smiles": "CC(=O)Oc1cc(C)c(OC(C)=O)c2ccccc12", "activation": "inactive: -0.473%"},
      {"smiles": "CC1CCc2sc3nc(N4CCN(CCO)CC4)n4ncnc4c3c2C1", "note": "(stereo unspecified)", "activation": "inactive: 16.2%"},
      {"smiles": "COc1ccc(CNS(=O)(=O)CCNC(=O)c2ccc(OC)cc2)cc1", "activation": "inactive: -1.08%"},
      {"smiles": "Nc1nnnn1/N=C/c1ccccc1Cl", "activation": "inactive: -0.611%"},
      {"smiles": "C=C(C)CSc1nncn1/N=C/c1ccc(OC)cc1", "activation": "inactive: 1.56%"},
      {"smiles": "O=C(NCCc1ccccc1)c1ccc(-c2ccccc2Cl)o1", "activation": "inactive: 3.41%"},
      {"smiles": "COc1ccc(CC(=O)OCC(=O)N2c3ccccc3CC2C)cc1OC", "note": "(stereo unspecified)", "activation": "inactive: -0.291%"},
      {"smiles": "COc1ccc(-c2nnc(OCc3nc4ccccc4n3C)c3ccccc23)cc1", "activation": "inactive: 18.7%"},
      {"smiles": "CCn1c(SCC(=O)OC)nc2sc3c(c2c1=O)CCC3", "activation": "inactive: 3.72%"},
      {"smiles": "Nc1nc(Nc2ccccc2F)nc(N2CCCC2)c1[N+](=O)[O-]", "activation": "inactive: 9.62%"},
      {"smiles": "COc1ccc(/C=C2\\CCC(C3CCCC3)C2=O)cc1", "note": "(stereo unspecified)", "activation": "inactive: -0.535%"},
      {"smiles": "CCc1nc2ccc(C(=O)Nc3ccc(OC)c(OC)c3)cn2c1N(CC)Cc1ccc(OC)c(OC)c1", "activation": "inactive: 12.9%"},
      {"smiles": "CC(CC1CC(C)(C)OC1=O)C(=O)Nc1nncs1", "note": "(stereo unspecified)", "activation": "inactive: -1.07%"},
      {"smiles": "Cc1cc(C)c2c3c(sc2n1)C(c1ccccc1)C(C#N)=C(N)O3", "note": "(stereo unspecified)", "activation": "inactive: 11.5%"},
      {"smiles": "CC(C)c1ccc(Nc2nc(Cl)nc(NCCO)n2)cc1", "activation": "inactive: 2.61%"},
      {"smiles": "CCOc1cc(CN2CCN(c3cccc(C(F)(F)F)c3)CC2)ccc1OC", "activation": "inactive: 0.52%"},
      {"smiles": "COc1cc2c(cc1OC)/C(=C/C(=O)c1cccc([N+](=O)[O-])c1)NCC2", "activation": "inactive: 29.4%"},
      {"smiles": "N#Cc1nc(-c2cccs2)oc1NCc1ccco1", "activation": "inactive: 0.479%"},
      {"smiles": "COc1ccc(CCN(C)C(=O)CCc2nnc(-c3ccccc3)o2)cc1OC", "activation": "inactive: -0.272%"},
      {"smiles": "CCCn1c2c(c(O)c(C(=O)NCCCN(CC)CC)c1=O)CCCC2", "activation": "inactive: 0.237%"},
      {"smiles": "COc1ccc(/C=C2\\CCc3ccccc3C2=O)c(OC)c1OC", "activation": "inactive: 1.42%"},
      {"smiles": "O=c1cc(-c2ccccc2)oc2ccccc12", "activation": "inactive: 6.68% [at 92.2 µM]"},
      {"smiles": "OC(CNCc1cccc(Cl)c1)c1ccccc1", "note": "(stereo unspecified)", "activation": "inactive: 15.6%"},
      {"smiles": "COc1ccc(C(=O)COC(=O)c2sccc2C)cc1OC", "activation": "inactive: 4.91%"},
      {"smiles": "Cc1ccc(-c2nc3ccccc3[nH]2)cc1NC(=O)c1sc2ccccc2c1Cl", "activation": "inactive: 0.319%"},
      {"smiles": "COc1ccc(Nc2ccc(S(=O)(=O)N3CCCCC3)cc2[N+](=O)[O-])cc1OC", "activation": "inactive: 3.02%"},
      {"smiles": "CC(C)N(CCNC(=O)c1oc(=O)c2ccccc2c1-c1ccccc1)Cc1ccco1", "activation": "inactive: 5.31%"},
      {"smiles": "COc1ccc2nc(SCc3ccccc3)nc(C)c2c1", "activation": "inactive: 5.73%"},
      {"smiles": "COC(C)c1oc2c(C)c3oc(=O)cc(C)c3cc2c1C", "note": "(stereo unspecified)", "activation": "inactive: 6.59%"},
      {"smiles": "COc1cc2c(cc1OC)C(c1cccc([N+](=O)[O-])c1)=NCC2", "activation": "inactive: 16.3%"},
      {"smiles": "CN1C(C(=O)Nc2ccccn2)C(=O)c2sc(Cl)cc2S1(=O)=O", "note": "(stereo unspecified)", "activation": "inactive: -1.06%"},
      {"smiles": "COc1ccc(/C=N/n2c(-c3ccc(C)cc3)n[nH]c2=S)cc1OC", "activation": "inactive: 22.8%"},
      {"smiles": "CC1CCCN(Cc2ccc(OCc3ccccc3)cc2)C1", "note": "(stereo unspecified)", "activation": "inactive: 0.569%"},
      {"smiles": "COC(=O)c1ccccc1NC(=O)COc1ccc(S(=O)(=O)NC(C)C)cc1", "activation": "inactive: 19.6%"},
      {"smiles": "CCN(c1ccccc1)c1nc(Cl)nc2c1cnn2C", "activation": "inactive: 9.56%"},
      {"smiles": "CCOc1ccc(Br)cc1S(=O)(=O)Nc1ccc(C(=O)OCC(=O)N(C)c2ccccc2)cc1", "activation": "inactive: 0.375%"},
      {"smiles": "CSc1ncccc1C(=O)OCCCC(=O)c1ccc(F)cc1", "activation": "inactive: 0.334%"},
      {"smiles": "COC(=O)C(C)Sc1ccc2nnc(-c3ccc(F)cc3)n2n1", "note": "(stereo unspecified)", "activation": "inactive: -0.497%"},
      {"smiles": "CCCc1ccc2oc(C(=O)N3CCC(COC)C3)c(C)c2c1", "note": "(stereo unspecified)", "activation": "inactive: 2.34%"}
    ]}
  ]
}
